In all, about 33,000 sequences were measured (“E-score (-0.5 to 0.5)”: median about -0.04, highest 2% from about 0.36 on). This is one part of the list.
Each sequence was assayed against T1, Hmlalpha2 (UniProt P0CY09) (assay: PBM E-score (8-mer binding enrichment) (E-score (-0.5 to 0.5)); higher = stronger / more preferred TF binding; most listed sequences are background and not binding sites). Conditions: protein concentration: 200 nM; construct: GST-full length.
T1 sequence: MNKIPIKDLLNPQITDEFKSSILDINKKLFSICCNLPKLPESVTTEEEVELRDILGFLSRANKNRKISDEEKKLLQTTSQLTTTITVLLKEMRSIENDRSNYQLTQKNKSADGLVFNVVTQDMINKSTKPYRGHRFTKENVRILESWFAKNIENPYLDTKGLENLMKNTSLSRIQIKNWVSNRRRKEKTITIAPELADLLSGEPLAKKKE
Method in brief: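 Yeast transcription factors carrying a GST tag, as full-length proteins or DNA-binding domains, were produced by PURExpress in vitro transcription/translation. About 100-200 nM protein was applied to universal all-10-mer Agilent arrays, double-stranded by primer extension on fresh or once-stripped slides. Bound protein was detected with fluorescent anti-GST, and scans were normalised with masliner. The Universal PBM Analysis Suite gave each ungapped eight-base word, pooled with its reverse complement, an E-score, a modified Wilcoxon-Mann-Whitney statistic.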

Sequence | PBM E-score
CCCCCACG | -0.262
GTCATGCA | 0.133
ACATCGGA | 0.0659
CTTCCTGC | -0.0744
CAGTGCTA | -0.197
AAATTAAG | 0.0964
CCATGCGG | -0.12
CTATAACC | -0.0529
AGTTATTA | 0.214
AAGGAGAC | -0.0366
CGCGTTTA | 0.266
AGGTAGCA | -0.164
ACATGCTA | 0.379
CGAAGCCG | -0.267
CTAATTAC | 0.362
AGCAATAT | 0.0158
AGAGTCAA | -0.224
GGTAATAA | 0.178
CTTGTGGA | -0.0735
ATGTACGG | 0.147
CATGGGAA | 0.107
GATGGTAA | -0.0264
CGACGTCG | -0.0462
GACAGAGA | 0.134
AGTTGGCG | -0.172

Sequence | PBM E-score
GATTATCA | 0.0169
ACCATAGG | -0.168
CGAAGTCG | 0.137
GAGTTAGA | -0.0875
AATAAAAA | 0.23
ACCCATTA | 0.0874
GCGTATCC | 0.0764
CCCACGCG | -0.223
CGAACACG | 0.254
GTGCTTGA | 0.0547
AAGGGGCT | -0.0207
CAAGTGTG | 0.0681
CCGATGCG | -0.121
GGCTTGGA | -0.241
CGGTACGA | -0.0787
AGTCGTAT | 0.0171
CTTAAATA | -0.101
CGACCCTA | -0.16
GGTGACCA | -0.225
AATTGCCG | -0.102
ACTCCCCG | -0.0984
GGCGGACA | -0.303
GCCAGTTA | 0.0175
CTCTAGGC | -0.201
CCGGACGG | -0.226

Sequence | PBM E-score
GGAGACCA | -0.221
CCCTGCTC | -0.261
CTGCGTGC | 0.106
CGGCATGA | -0.128
AGGGTGAA | -0.0754
CATATTCA | 0.179
CTTTACCC | 0.0677
CGCCCTTA | -0.101
CACTGATC | -0.133
CCTGAAAC | 0.0126
AGGCGCAC | -0.199
CGAGTACC | 0.0986
CACTTCAA | 0.2
AATGATAC | 0.142
ACAACCGG | 0.0897
GACGTCTA | -0.189
ATACTGTA | 0.157
CATTTGCC | -0.299
TTCTGAAA | 0.0341
AAACAACT | 0.0928
CACCTCCC | -0.275
AAATTAGC | 0.0486
CGGTCAGC | -0.154
AAAGAGGA | -0.304
GTATATCA | 0.292

Sequence | PBM E-score
GCCGAGCA | -0.332
GGAGGTTA | -0.0713
AGAAGGGA | -0.329
GGAAGGGA | -0.452
ACGGCCGC | -0.024
AGGGGAAT | -0.112
GGAAGCAC | 0.0403
CATATCCC | 0.0687
CGACTCAC | -0.21
CTTAGAGA | -0.198
CTAGAGAA | -0.111
CGCAAAAG | -0.031
TATTGCAA | 0.0893
CGTACCTA | -0.0874
CAAAAGAC | -0.0821
CAAGGCCC | -0.164
AGAATCGG | -0.092
TTAGTGAA | 0.122
ACTATATG | 0.0852
GAGGATGC | -0.14
GATGCCCA | -0.13
AACCTCAG | -0.0975
TACCAGGA | -0.0294
AAGCAAGG | -0.0396
ATGTAGCA | 0.185

Sequence | PBM E-score
TAAAGTCA | 0.0157
CTGGCGCC | -0.196
CACCCTAC | 0.132
CGTGATCC | -0.167
CTGAGCTC | -0.199
CCCTAAAG | -0.33
CGGGGAGA | -0.256
CTCGCTCA | -0.0687
GCATATAA | 0.126
ATCGGATA | 0.146
CTGCCTTA | -0.206
CACATTGC | 0.245
CTTCATTC | -0.149
ACTACGAC | 0.0185
ATATCTGG | -0.124
CTCCGCAG | -0.23
CGTAGAAG | 0.17
GGTTTGAC | -0.00499
ATACGTGG | 0.181
TAAATCCA | 0.0603
GTCCCCTA | -0.161
CTTCCCGC | -0.0834
CATACGAA | 0.104
AGTGAACT | 0.0194
CCTAATCC | -0.224

Sequence | PBM E-score
AATAAATC | -0.0699
GATAAGGC | -0.126
AAAAGGCG | 0.00436
GAGTTGAA | -0.117
CGAAGGCC | -0.313
AGAGCGGG | -0.166
ACCCATCA | -0.0788
AGGGCCCA | -0.239
AACTGGCT | -0.161
ATCGGTGG | -0.314
ATCCGATG | -0.00175
CAGAGCAC | -0.161
GGGGGCAC | -0.315
GATCTGGC | 0.0544
CGCACGCG | -0.0207
GAATGGGC | -0.231
ATTCACAA | 0.232
ACTAAAGG | -0.024
CCCCTTCC | -0.173
GCTAGAGA | -0.17
GAGATGAA | -0.0111
CCGGCGCC | -0.204
AAAATAGG | 0.0818
CGACTCTC | -0.261
GAAAGACC | -0.353

Sequence | PBM E-score
ACGGTTCG | -0.21
AATCATAT | 0.0462
CTGTGTAA | 0.483
TAGGGAAA | -0.0352
CAGGATAC | -0.0887
CTTTCATA | 0.162
GTGACAAC | 0.0482
AAGCCTCC | -0.163
ACGTTCGA | 0.0841
AAAATGTA | 0.258
ATGACCAG | -0.106
AGATGAAC | 0.206
CTTGATTA | -0.00946
AAATTCGG | -0.0282
GGTGGACA | -0.0373
CTATATCA | -0.131
ATAGAGTG | -0.153
CAGGCACG | -0.037
CCCGCTCC | -0.417
AAGGCCGC | -0.0672
AGATTGGC | -0.218
CGGGGTTA | -0.143

From the supplement of paper PMC3334620
